Out of some 52,000 compounds screened, about 4,300 (8.3%) were called active. Cut-off read from the data, not from the text of the source: active = survival mostly below about 52% (no sharp cut-off); inactive = mostly above about 56%. This is one part of the list.

The subject of this assay is DeltatarO mutant. Kind of assay: growth inhibition of S. aureus wild type versus tarO mutant, primary screen, teichoic acid synthesis inhibitors, RN4220, OD600 (AID 463173). Particulars: OD600, 18 h, active compounds read low, screened at 18.75 µg/mL (by protocol).
Turning to `CCCCNS(=O)(=O)c1ccc2nc(-c3cccnc3)cc(C(=O)NCCOC)c2c1`, the survival was inactive: 73%.

With `COc1cccc(-c2nnc(SCC(=O)N3c4ccccc4Sc4ccccc43)o2)c1`, the survival was active: 35%.

On to `Cc1ccccc1NC(=O)c1ccc(Cl)c(S(=O)(=O)N2CCCCCC2)c1`, for which the survival was inactive: 132%.

Take `O=C(NCCCc1nc2ccccc2n1Cc1ccc(Cl)cc1Cl)c1ccco1`: the survival is inactive: 58%.

For `Cn1c(=O)[nH]c(=O)c2c1nc(CN1CCN(c3cccc(Cl)c3)CC1)n2Cc1ccccc1`, the survival is inactive: 97%.

As to `COc1ccc(C(=O)N2c3ccc(C)cc3C(C)(c3ccccc3)CC2(C)C)cc1` (stereo not given), the survival is active: 25%.

In the case of `CCc1ccc(CNC(=O)c2c(C)oc3ncn(CC(C)C)c(=O)c23)cc1`, the survival was inactive: 88%.

For `COc1cc(Cl)c(C)cc1NC(=O)Cn1ncc2c3ccccc3n(Cc3ccccc3)c2c1=O`, the survival is inactive: 83%.

On to `COc1ccc(CNC(=O)CCCn2c(=O)c3cccn3c3cccnc32)cc1`, for which the survival is inactive: 106%.

With `CCN(CC)CCCNC(=O)CN1N=C(c2ccc(OC)cc2)CCC1=O`, the survival is inactive: 105%.

As for `CCOC(=O)c1c(C)sc(-c2c(-c3ccc(OC)c(F)c3)[nH]c3[nH]c(=O)[nH]c(=O)c23)c1O`, the survival was inactive: 118%.

`CC1=C(C(=O)Nc2ccc(Cl)cc2)C(c2ccc(C(F)(F)F)cc2)n2nnnc2N1` (stereo not given): the survival is inactive: 64%.

For `COc1ccc(-c2nc(SCC(=O)N3CCCCC3C)n[nH]2)cc1` (stereo not given), the survival was inactive: 130%.

`CCOC(=O)c1cc(-c2ccc(OC)cc2)n(CCC(=O)Nc2nc3ccc(OCC)cc3s2)c1C`: the survival was inactive: 105%.

`Cc1cc(=O)[nH]c2c1c(=O)[nH]n2C1CC(C)N(C)CC1C` (stereo not given): the survival was inactive: 112%.

For `COC(=O)c1cnn(-c2ccc(C(=O)Nc3cc(OC)c(OC)c(OC)c3)cc2)c1N`, the survival is inactive: 92%.

Turning to `Cc1ccc(CN(Cc2ccco2)C(=O)c2ccc(Cl)cc2)o1`, the survival was inactive: 106%.

For `CCc1ccc(-n2c(=O)c3c(C)c(C(=O)N(C)C)sc3n(Cc3ccccc3C#N)c2=O)cc1`, the survival was inactive: 83%.

Consider `CCc1cccc(C)c1Nc1c(-c2cccc(O)c2)nc2nc(C)cc(C)n12`, for which the survival was inactive: 66%.

Turning to `CCC1CCCCN1C(=O)Cn1c(=O)cc(C(F)(F)F)c2c(C)nn(C)c21` (stereo not given), the survival is inactive: 71%.

Consider `COc1ccc(NC(=O)CSc2nccn2Cc2ccco2)c(OC)c1`, for which the survival was inactive: 122%.

`CC(=O)Oc1ccccc1C(=O)N1CCN(c2ccccc2F)CC1`: the survival was inactive: 73%.

For `O=C1c2[nH]nc(-c3ccccc3O)c2C(c2ccc(F)cc2)N1CCO` (stereo not given), the survival was inactive: 78%.

On to `COc1ccc(OC)c(NC(=O)Cc2c(C(=O)O)n(C)c3ccc(C)cc23)c1`, for which the survival is inactive: 104%.

With `COc1ccc(-n2cc(C(=O)NCCc3ccc(C)cc3)c3ccccc3c2=O)cc1`, the survival was inactive: 53%.

Take `NC(=O)C1CCCN(C(=O)Nc2c[nH]c3ccccc3c2=O)C1` (stereo not given): the survival is inactive: 93%.

As to `CC1CCCCN1C(=O)CSc1nc2ccccc2nc1Cc1ccccc1` (stereo not given), the survival is inactive: 76%.

Turning to `COC(=O)c1ccc(C2CC(=O)Nc3c2c(C)nn3-c2nc(C)cc(C)n2)cc1` (stereo not given), the survival is inactive: 65%.

Consider `COc1ccc(CNC(=O)C2CCCCN2S(=O)(=O)c2ccc(F)cc2)cc1` (stereo not given), for which the survival is inactive: 95%.

As to `CCOc1c(CC2C(=O)Nc3ccc(Br)cc32)cccc1OC` (stereo not given), the survival is inactive: 102%.

For the molecule `Cc1nc(N2CCOCC2)c2c(C(=O)N3CCN(c4cc(Cl)ccc4C)CC3)c(C)oc2n1`, the survival was active: 46%.

For `O=C(CN1C(=O)C2CCCCN2c2ccc(C(=O)N3CCCC3)cc21)NCc1ccc(F)cc1` (stereo not given), the survival is inactive: 85%.

Regarding `CCOc1ccccc1CNc1ncnc2onc(-c3ccc(F)cc3)c12`, the survival was inactive: 91%.

With `CCCC(=O)Nc1nc2ccc(S(C)(=O)=O)cc2s1`, the survival is inactive: 93%.

For the molecule `CCN1CCC(N(Cc2ccc(F)cc2)C(=O)Nc2cc(C)ccc2C)CC1`, the survival was inactive: 81%.

On to `Cc1cc(-c2ccc(S(=O)(=O)Nc3ccccc3C)cc2)on1`, for which the survival is inactive: 95%.

As to `CCOC(=O)c1cc2c(ccn2C)n1CC(=O)NC(c1ccccc1)c1ccccc1`, the survival is inactive: 97%.

As for `O=C(Nc1ccc(F)cc1)C1CCN(c2nc3ccccc3nc2C(F)(F)F)CC1`, the survival is inactive: 118%.

In the case of `CCn1c(SC)nc2c([nH]c3ccccc32)c1=O`, the survival is inactive: 67%.

Turning to `O=C(Cn1ccc2cc(S(=O)(=O)N3CCCC3)ccc21)NCc1ccc(Cl)cc1`, the survival is inactive: 84%.

Take `Cc1cc(C)cc(NC(=O)CC(C)n2nc(C)cc2C)c1` (stereo not given): the survival is inactive: 74%.

Turning to `COc1ccc(CNC(=O)c2ccc3c(c2)N=C(C)c2c(C)ccc(C)c2S3)cc1`, the survival was inactive: 82%.

With `CCOC(=O)c1c(S(=O)(=O)N2CCC(C(=O)Nc3ccc(C)cn3)CC2)c(C)n(C)c1C`, the survival is inactive: 101%.

Consider `Cc1[nH]c(=O)[nH]c(=O)c1S(=O)(=O)Nc1cccc(Cl)c1C`, for which the survival is inactive: 73%.

Regarding `CCOc1ccc(CNC(=O)Cn2nc(C)c3nn(-c4ccc(Cl)cc4)c(C)c3c2=O)cc1`, the survival is inactive: 118%.

Take `COc1cc(-c2ccno2)ccc1S(=O)(=O)N1CCN(c2cccc(Cl)c2)CC1`: the survival was active: -1%.

In the case of `COc1ccccc1NC(=O)c1sc2nc(-c3cc4cc(Cl)ccc4oc3=O)[nH]c(=O)c2c1C`, the survival is active: 45%.

For `Cc1ccc(CNC(=O)c2oc3ccc(S(=O)(=O)N4CCCC(C)C4)cc3c2C)cc1` (stereo not given), the survival was inactive: 51%.

`Cc1oc2ncnc(N3CCCCC3)c2c1C(=O)NCC1CCN(Cc2ccccc2F)CC1`: the survival is inactive: 92%.

Turning to `Cc1cccc(NC(=O)c2ccccc2)n1`, the survival is inactive: 93%.

As for `COc1ccc(NC(=O)C2=C(C)Nc3nc(SCc4ccc(C)cc4C)nn3C2c2cccc(OC)c2OC)cc1` (stereo not given), the survival is inactive: 80%.

As for `O=C(O)C1C2C=CC(O2)C1C(=O)Nc1ccccc1` (stereo not given), the survival was inactive: 98%.

With `NS(=O)(=O)c1ccc(NC(=O)c2cc(-c3cccs3)nc3ccccc23)cc1`, the survival is inactive: 118%.

As to `Cc1ccc(NC(=O)CCCc2nnc3n(C)c(=O)c4sccc4n23)cc1C`, the survival is inactive: 96%.

In the case of `CC1(C(=O)NN)NC2(CCCCC2)Cc2ccccc21` (stereo not given), the survival was inactive: 103%.

Take `COCC(=O)N1CCN(c2ncnc3c(-c4ccc(Cl)cc4)nsc23)CC1`: the survival was inactive: 90%.

On to `COC(=O)Nc1c(-c2ccccc2)nc2ccc(C)cn12`, for which the survival is inactive: 74%.

As for `COc1ccc(CCNS(=O)(=O)c2ccc3c(c2)c(=O)n(C)c(=O)n3C)cc1OC`, the survival was inactive: 85%.

For the molecule `NC(=O)CSc1nc2ccc(NC(=O)COc3ccccc3)cc2s1`, the survival is inactive: 79%.

On to `CCCn1c(=N)c(C(=O)NC2CCCC2)cc2c(=O)n3cc(C)ccc3nc21`, for which the survival is inactive: 60%.

In the case of `CC1CCC(NC(=O)c2ccc3c(c2)N(Cc2ccccc2F)C(=O)c2ccccc2S3)CC1` (stereo not given), the survival is inactive: 83%.

On to `O=C(NCC1CCCO1)NC12CC3CC(CC(C3)C1)C2` (stereo not given), for which the survival is inactive: 78%.

As for `CC1CCCC(C)N1C(=O)CSc1nnc(-c2ccccc2)o1` (stereo not given), the survival was inactive: 108%.

For the molecule `c1ccc(-c2cc(-c3ccccc3)c3c(n2)-c2ccccc2OC3)cc1`, the survival is inactive: 50%.

As to `CC1CCN(S(=O)(=O)c2ccc3c(c2)N(CC(=O)NCc2ccccc2Cl)C(=O)CS3)CC1`, the survival is inactive: 71%.

`COc1nc(NC23CC4CC(CC(C4)C2)C3)nc(OC)n1`: the survival is inactive: 107%.

Regarding `CN(C)c1cc[n+](CC(=O)N2CCCc3ccccc32)cc1`, the survival is inactive: 85%.

Regarding `CCOc1ccc(C(=O)NCCc2sc(-c3ccc(C)cc3)nc2C)cc1`, the survival is active: -1%.

Consider `COc1cc(Nc2nc(SCc3ccccc3F)nc3ccccc23)cc(OC)c1`, for which the survival is inactive: 118%.

On to `Cc1ccc(CCNC(=O)c2ccc(CS(=O)(=O)c3ccc(Br)cc3)o2)cc1`, for which the survival was inactive: 125%.

On to `CCOc1ccccc1NC(=O)CSc1c(C)cnc2c1c(=O)n(C)c(=O)n2C`, for which the survival is inactive: 89%.

In the case of `CCCCNc1ccc(-c2nc(-c3ccccc3)no2)cc1[N+](=O)[O-]`, the survival is inactive: 72%.

Consider `O=C(Nc1cccc(C(F)(F)F)c1)C1CCCN(S(=O)(=O)c2cccc3nsnc23)C1` (stereo not given), for which the survival was inactive: 64%.

Turning to `COC(=O)C(=NNc1cccc(Cl)c1)C(=O)OC`, the survival is inactive: 75%.

Turning to `O=S(=O)(Nc1ccc(F)c(C(F)(F)F)c1)c1ccc(N2CCCCS2(=O)=O)cc1`, the survival was inactive: 124%.

Regarding `COc1ccc(C2C(=O)N(C3CCC(C)CC3)CC(=O)N2Cc2ccc(C)cc2)cc1OC` (stereo not given), the survival was inactive: 86%.

On to `Cc1ccc(C#N)c(=O)[nH]1`, for which the survival was inactive: 78%.

As for `Cc1cc(C)cc(NC(=O)Cn2nnc(C(=O)NCCc3ccccc3)c2N)c1`, the survival is inactive: 74%.

As to `COc1ccc(OC)c(CNS(=O)(=O)c2c(C(=O)N3CCC(C)CC3)c(C)n(C)c2C)c1`, the survival is inactive: 60%.

Consider `CC1=C(C(=O)Nc2cccc(C)c2C)C2(CCCCC2)OC1=O`, for which the survival was inactive: 89%.

Turning to `CC1(C)NC(=O)N(CC(O)CNC23CC4CC(CC(C4)C2)C3)C1=O` (stereo not given), the survival is inactive: 61%.

`CCOCCCNC(=O)C(c1ccc(OC)cc1)N(Cc1cccs1)C(=O)c1ccccc1O` (stereo not given): the survival was inactive: 50%.

For `COc1ccc(CCNC(=O)c2cnc3sc(N4CCCCCC4)nn3c2=O)cc1OC`, the survival is inactive: 89%.

For the molecule `CCOc1ccc(C(=O)NC2CCN(C(=O)NCc3ccccc3)CC2)cc1`, the survival was inactive: 84%.

Turning to `COc1ccccc1N1CCN(CCCNC(=O)c2cnn(-c3ccccc3Cl)c2C2CCN(C(=O)OC(C)(C)C)CC2)CC1`, the survival was inactive: 71%.

Regarding `CC(C)NC(=O)CSc1nc2ccccc2nc1N1CCCCC1`, the survival was active: -26%.

With `Cc1ccc(Sc2ccc(N3CCCC(C(=O)Nc4ccc(Cl)cc4)C3)nn2)cc1` (stereo not given), the survival was inactive: 63%.

As to `Cc1ccc(C(c2nnnn2C2CCCC2)N2CCc3ccccc32)cc1` (stereo not given), the survival is inactive: 100%.

In the case of `CC1CCN(CC(=O)N2CCCc3c2c(=O)oc2ccc(OCc4ccccc4)cc32)CC1`, the survival was inactive: 98%.

Consider `COc1ccc(Cn2nnnc2CN(Cc2cccs2)Cc2cc3ccc(OC)cc3[nH]c2=O)cc1`, for which the survival was inactive: 95%.
